Several values for one entry are separate records, joined by “and”; a condition that tells them apart may be missing. Equal entries are not always repeated. Among all 16,000 compounds or so, about 40 (0.2%) were called active. Roughly 1% stayed inconclusive and do not appear here. Calls follow the shape of the dose curve; as a rule, active = well fitted activation curve with a large enough effect; inconclusive = small, poorly fitted or top-dose-only effect, or another doubt; inactive = no such curve, though single readings can be large or run the other way. Some of the results follow. Positions of bridges follow the written chain, without caps; N, C: chain ends. Non-standard residues stand in square brackets, D forms with d. Residues, ends and D or L forms follow the SMILES beside them. ξ: configuration not given here. *: point of attachment. d(aThr) = C[C@@H](O)[C@@H](N)C(=O)O; ξThr(3R) = C[C@@H](O)C(N)C(=O)O; X8 = CC[C@@H](C)CCCCC(=O)*; dDab = NCC[C@@H](N)C(=O)O
% is scaled to controls: 0 for no effect and ±100 for the full control effect.

The target of the assay is Rap guanine nucleotide exchange factor 4 (Homo sapiens) (UniProt Q8WZA2). As to the kind of experiment: Validation qHTS for agonist of cAMP-regulated guanine nucleotide exchange factor 4 (EPAC2).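 Also: exchange makes BODIPY-GDP fluorescence drop when released from Rap1B; series mostly up to about 150 µM.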 As to conditions: EPAC2 Rap1B BODIPY-GDP exchange, fluorescence; activation: hits give high values. A digest of the protocol: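 Signal normalized against 6.5 mM cAMP as agonist control. Mix of EPAC2 (100 nM), RAP1B-BODIPY-GDP (250 nM) and GDP (50 uM) was read kinetically at 480/540 nm, every 5 min over 30 min, after 5 min room-temperature incubation with compound.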
Chain of UniProt Q8WZA2 (Q8WZA2 whole entry, looked up): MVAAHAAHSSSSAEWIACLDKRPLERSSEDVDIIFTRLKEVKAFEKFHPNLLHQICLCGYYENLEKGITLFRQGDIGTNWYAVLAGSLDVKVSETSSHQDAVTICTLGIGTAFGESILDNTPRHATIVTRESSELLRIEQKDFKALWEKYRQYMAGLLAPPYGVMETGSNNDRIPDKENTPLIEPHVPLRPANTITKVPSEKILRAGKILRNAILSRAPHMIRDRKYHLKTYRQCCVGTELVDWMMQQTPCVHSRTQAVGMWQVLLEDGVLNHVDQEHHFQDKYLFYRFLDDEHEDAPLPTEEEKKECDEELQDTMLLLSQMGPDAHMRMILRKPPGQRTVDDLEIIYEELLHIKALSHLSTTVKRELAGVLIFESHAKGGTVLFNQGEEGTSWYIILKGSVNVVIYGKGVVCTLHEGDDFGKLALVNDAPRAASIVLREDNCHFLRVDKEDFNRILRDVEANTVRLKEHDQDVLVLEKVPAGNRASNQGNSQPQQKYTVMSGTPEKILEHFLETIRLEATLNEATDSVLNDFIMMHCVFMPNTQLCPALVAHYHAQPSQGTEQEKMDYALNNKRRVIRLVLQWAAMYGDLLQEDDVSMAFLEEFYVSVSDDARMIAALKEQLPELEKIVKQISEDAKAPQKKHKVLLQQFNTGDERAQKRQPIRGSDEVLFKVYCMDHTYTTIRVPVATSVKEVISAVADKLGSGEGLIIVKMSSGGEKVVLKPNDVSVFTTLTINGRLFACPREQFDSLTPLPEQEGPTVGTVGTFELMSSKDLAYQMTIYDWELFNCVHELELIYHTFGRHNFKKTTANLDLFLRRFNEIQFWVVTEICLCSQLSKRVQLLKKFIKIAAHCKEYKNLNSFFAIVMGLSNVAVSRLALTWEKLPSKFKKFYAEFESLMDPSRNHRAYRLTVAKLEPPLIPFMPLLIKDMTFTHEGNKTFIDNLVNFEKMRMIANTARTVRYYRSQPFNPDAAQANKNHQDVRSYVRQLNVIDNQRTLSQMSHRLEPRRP
Take `O=c1c(-c2ccc(Cl)cc2)nc2cnc(N3CCOCC3)nc2n1-c1ccccc1`: the activation was inactive: -1.48%.

`O=CCCCC=O`: the activation was inactive: -5.34%.

As for `O=c1c(-c2cc(F)cc(F)c2)nc2cnc(N3CCOCC3)nc2n1C1CC1`, the activation was inactive: -11.7%.

As for `CC1(C)S[C@@H]2[C@H](NC(=O)COc3ccccc3)C(=O)N2C1C(=O)OCc1ccccc1` (some centres not stated), the activation is inactive: -26.5%.

Take `Nc1ccccc1C(=O)C[C@H](N)C(=O)O`: the activation is inactive: 8%.

As for `CCCCOc1ccc(C(=O)CCN2CCCCC2)cc1`, the activation was inactive: -10.2% and inactive: -15.5%.

For `CC(C)(C)CC(C)(C)c1ccc(OCCOCC[N+](C)(C)Cc2ccccc2)cc1`, the activation is inactive: -42% and inactive: -10.4%.

On to `O=P(O)(O)C(O)c1ccc2ccccc2c1` (configuration not stated), for which the activation was inactive: -2.68%.

With `CC(C)C[C@@H](CSc1ccccc1)N1CCN(C)CCC1=O`, the activation is inactive: -9.44%.

As for `Cn1c(SCc2ccccc2)nnc1C1CCCN(Cc2cccc3ncccc23)C1` (configuration not stated), the activation is inactive: -8.36%.

As to `CC(C)CCCCCCc1ccc(O)cc1`, the activation was inactive: -21.8%.

Regarding `CC[C@@H](C(=O)[C@@H](C)[C@@H](O)[C@H](C)[C@@H]1O[C@@H]([C@@H](CC)C(=O)O)CC[C@@H]1C)[C@H]1O[C@]2(C=C[C@@H](O)[C@]3(CC[C@@](C)([C@H]4CC[C@](O)(CC)[C@H](C)O4)O3)O2)[C@H](C)C[C@@H]1C`, the activation is inactive: -3.39%.

`CCOC(=O)C(C)Oc1cccc2c(=O)n(CC(=O)Nc3ccc4c(c3)OCCO4)ccc12` (configuration not stated): the activation is inactive: -16.4%.

Consider `Cc1cccc(CN2C[C@H](Sc3ccccn3)C[C@H]2C(=O)Nc2ccc3sc(C)nc3c2)c1`, for which the activation was inactive: 0.845%.

With `Cn1nnc2c(C(N)=O)ncn2c1=O`, the activation was inactive: -10.5%.

Consider `C=CC1=C(C)/C(=C/c2[nH]c(Cc3[nH]c(/C=C4\NC(=O)C(C)=C4C=C)c(C)c3CCC(=O)O)c(CCC(=O)O)c2C)NC1=O`, for which the activation was inactive: 25%.

Consider `O=C(NCCc1nnc2n1CCN(Cc1ccc(F)cc1)CC2)c1ccco1`, for which the activation was inactive: -6.79%.

As for `COc1ccc(CN2CCC3(CCC(CNC(=O)c4ccco4)O3)CC2)c(OC)c1C` (configuration not stated), the activation was inactive: 2.04%.

Consider `Cc1ccc(C(=O)Cn2c3c(sc2=N)CCCC3)cc1`, for which the activation is inactive: -11%.

In the case of `CC(C)(C)NC(=O)[C@H]1CC[C@H]2[C@@H]3CC[C@H]4NC(=O)C=C[C@]4(C)[C@H]3CC[C@]12C`, the activation was inactive: 7.71%.

In the case of `N[C@]1(C(=O)O)CCc2cc(P(=O)(O)O)ccc21`, the activation is inactive: -17%.

For the molecule `O=Cc1cccc(C=O)c1`, the activation is inactive: -13.6%.

Take `CC(C)c1c(C(=O)NCc2ccncc2)cnn1-c1nccc(-c2cccs2)n1`: the activation was inactive: -6.96%.

Turning to `C=CC[N+]1([C@H]2C[C@H]3[C@@H]4CC[C@H]5C[C@H](O)[C@@H](N6CCOCC6)C[C@]5(C)[C@H]4CC[C@]3(C)[C@H]2OC(C)=O)CCCC1`, the activation is inactive: -7.35%.

`c1ccc(Nc2nc(-c3ccc4c(c3)OCO4)nc3ccccc23)cc1`: the activation is inactive: -6.54%.

As for `CC(C)=CCCC1(C)C=Cc2c(O)c3c(c(CC=C(C)C)c2O1)OC12C(=CCCC1C(C)(C)O[C@@]2(C/C=C(\C)C(=O)O)C(=O)O)C3=O` (some centres not stated), the activation was inactive: -41%.

With `COc1cccc(CNC(=O)c2c(OC)cc(=O)n3c2CCN(C(=O)c2cc(C)ccc2C)CC3)c1`, the activation was inactive: -2.82%.

Consider `Cc1ccccc1-c1cncnc1N1CCNCC1`, for which the activation is inactive: -17.2%.

With `CC(=O)N1CCC[C@H]1C(=O)NCC1Cc2cc(-c3cccc(OC(F)(F)F)c3)ccc2O1` (some centres not stated), the activation is inactive: -14.1%.

For the molecule `CCCc1c(OCCCOc2ccc(OCC(=O)O)cc2)ccc(CC=O)c1O`, the activation was inactive: -36.1%.

`Nc1nc(N)c2nc(-c3ccccc3)c(N)nc2n1`: the activation was inactive: -16.8% and inactive: -14.5% and inactive: -59.9%.

`CC[C@@H](C)CCCCC(=O)N[C@H](CCN)C(=O)N[C@@H](C(=O)N[C@H](CCN)C(=O)N[C@@H]1CCNC(=O)C([C@@H](C)O)NC(=O)[C@@H](CCN)NC(=O)[C@@H](CCN)NC(=O)[C@@H](CC(C)C)NC(=O)[C@@H](Cc2ccccc2)NC(=O)[C@@H](CCN)NC1=O)[C@@H](C)O` (stereo partly drawn) (X8-[dDab][d(aThr)][dDab][dDab][dDab][dF][dL][dDab][dDab][ξThr(3R)]; lactam 4-C): the activation was inactive: -7.03%.

Turning to `C[C@H]1[C@H]2CC[C@H]3[C@@H]4CC=C5C[C@@H](N(C)C)CC[C@]5(C)[C@H]4CC[C@]23CN1C`, the activation is inactive: -13.8%.

For `C=C[C@@H]1c2c(F)cccc2N(S(=O)(=O)c2ccc(C)cc2)[C@H](c2ccc(C(=O)OC)cc2)C1(C#N)C#N`, the activation is inactive: -10.5%.

As for `O=C1O[C@H]2[C@H](O)[C@@H]1OC(O)[C@H]2O` (some centres not stated), the activation was inactive: 17.7%.

With `O=C1CCN(CCc2ccccc2)CCN1[C@H](CO)Cc1ccccc1`, the activation is inactive: -5.71%.

As to `CC(C)C(=O)c1c(C(C)C)nn2ccccc12`, the activation was inactive: -21.6% and inactive: -10.6% and inactive: -30.4%.

On to `COC(=O)[C@@H]1CCCN1C(=O)c1c(OC)cc(=O)n2c1CCN(Cc1cc(OC)ccc1F)CC2`, for which the activation was inactive: -8.61%.

As for `CC(C)(C)N1[C@@H](CC(=O)O)c2cc(C(F)(F)F)ccc2S1(=O)=O`, the activation is inactive: -8.89%.

For the molecule `Cn1c(=O)c(-c2cc(F)cc(F)c2)nc2cnc(N3CCOCC3)nc21`, the activation was inactive: -12.8%.

`N#Cc1ccc(CN2CCC3(CC2)CCN(C(=O)c2ccncc2)CC3)cc1`: the activation is inactive: -3.76%.

For the molecule `CCCCCCCCCOC(=O)C1N2C(=O)[C@@H](NC(=O)COc3ccccc3)[C@H]2SC1(C)C` (some centres not stated), the activation is inactive: 0.335%.

In the case of `CN(Cc1ccccc1)c1ccc(C=O)cc1`, the activation is inactive: -1.58%.

Consider `CCC1CN(Cc2c(C)nc3sccn23)Cc2cc(OC)ccc2O1` (configuration not stated), for which the activation was inactive: -7.58%.

As to `CCN1CCCC1CNC(=O)c1cc(S(=O)(=O)CC)ccc1OC` (configuration not stated), the activation was inactive: -18.4% and inactive: 3.72%.

On to `C[C@H](O)[C@H](O)[C@H]1CNc2nc(N)[nH]c(=O)c2N1`, for which the activation was inactive: -13.8%.

Regarding `CC1CC[C@@]23CCC4(C)[C@@]5(C)CCC6C(C)(C)C(O)CC[C@@]6(C)C5C=C[C@@]4(OC2=O)C3C1C` (some centres not stated), the activation was inactive: -12.8%.

(Values after PubChem BioAssay AID1645887 (National Center for Advancing Translational Sciences (NCATS), 2021).)
